Experimental data taken from paper PMC6919601, “Identification of Plasmodium dipeptidyl aminopeptidase allosteric inhibitors by high throughput screening” (PLoS ONE, 2019).
“And” between values parts separate entries of the source, which are not always exact repeats. Equal values may be shown once. About 230 (0.21%) of roughly 110,000 compounds showed an effect of 50% or more. The list shows a part of the results.

The compounds below were run against DPAP1 (Plasmodium falciparum, UniProt Q8IIJ9) (assay: primary screen, percent inhibition; read by cleavage of a fluorogenic dipeptide substrate; higher = more effect of the substance).
Sequence of DPAP1 (Q8IIJ9 whole entry, looked up): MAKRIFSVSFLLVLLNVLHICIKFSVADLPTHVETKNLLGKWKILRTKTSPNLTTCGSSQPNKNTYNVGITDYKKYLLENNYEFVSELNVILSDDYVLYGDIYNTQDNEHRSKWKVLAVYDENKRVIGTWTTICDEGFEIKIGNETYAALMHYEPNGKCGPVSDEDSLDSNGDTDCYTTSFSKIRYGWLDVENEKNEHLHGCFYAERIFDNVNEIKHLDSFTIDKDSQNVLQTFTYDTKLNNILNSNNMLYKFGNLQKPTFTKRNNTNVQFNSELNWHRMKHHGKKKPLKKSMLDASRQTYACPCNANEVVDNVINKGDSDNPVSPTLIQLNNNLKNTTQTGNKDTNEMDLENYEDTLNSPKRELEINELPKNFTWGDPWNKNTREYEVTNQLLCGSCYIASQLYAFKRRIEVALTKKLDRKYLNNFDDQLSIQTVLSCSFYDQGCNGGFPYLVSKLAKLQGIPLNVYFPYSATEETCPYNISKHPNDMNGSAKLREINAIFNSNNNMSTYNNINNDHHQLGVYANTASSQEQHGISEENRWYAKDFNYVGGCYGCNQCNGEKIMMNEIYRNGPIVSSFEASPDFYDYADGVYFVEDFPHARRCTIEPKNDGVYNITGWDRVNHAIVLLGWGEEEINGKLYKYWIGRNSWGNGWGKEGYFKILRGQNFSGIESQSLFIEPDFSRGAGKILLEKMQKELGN
Design: species or system P. falciparum D10 trophozoite lysates; single well
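Also: 30 min substrate incubation versus DMSO and 10 µM JCP410 controls.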

Row | Compound | % Inhibition @ 10 uM
1 | CN1CCN(c2ccc(NC(=O)c3cccnc3Cl)cc2)CC1 | 1.92%
2 | CCC(C(=O)NCCc1csc(-c2ccccc2)n1)c1ccccc1 (stereo not shown) | 0.953%
3 | O=C(Cn1ncc2c3ccccc3nc-2c1O)N1CCOCC1 | 1.66%
4 | Cc1ccc(S(=O)(=O)N2CCC(C(=O)Nc3ccccc3O)CC2)cc1 | -2.22%
5 | Cc1cccn2c(=O)c3cc(C(=O)NC(c4ccccc4)c4ccccc4)n(C)c3nc12 | 2.25%
6 | CCSc1nc(O)c2c(n1)N=C1CC(C)(C)CC(O)=C1C2c1cc(OC)ccc1OC (stereo not shown) | -6.94%
7 | COc1ccccc1/C=C/c1nc(-c2cc(C)nc3ccccc23)no1 | -2.19%
8 | Cc1ccc2nc(O)c3cc(C(=O)N4CCC5(CC4)OCCO5)sc3c2c1 | 4.41%
9 | CCc1ccc(C2C(C(=O)c3ccc4c(c3)CC(C)O4)=C(O)C(=O)N2CCN2CCOCC2)cc1 (stereo not shown) | 5.29%
10 | COc1ccc(Cl)c(Cn2c(NCCCN(C)C)nc3c2c(=O)n(C)c(=O)n3C)c1 | -6.98%
11 | CSC1=NSC2=NC(=O)/C(=C\c3ccc(OS(=O)(=O)c4ccccc4)cc3)C(=N)N12 | 5.06%
12 | COc1ccccc1C(=O)Nc1ccc(CN2CCOCC2)cc1 | -2.84%
13 | CC1CCCCN1C1CC(=O)N(c2ccccc2)C1=O (stereo not shown) | 5.4%
14 | Clc1ccccc1CSc1nc2cccnc2[nH]1 | 3.48%
15 | COCCNS(=O)(=O)c1cc(Cl)ccc1Cl | -4.4%
16 | CC(C)=CCCC(C)CN1CCCC1CO (stereo not shown) | -5.94%
17 | CCOc1ccc(CN(C)CCN(C)C)cc1 | 0.827%
18 | Cc1nc2ccc(S(=O)(=O)NC(CC(C)C)C(=O)NCc3ccccc3Cl)cc2s1 (stereo not shown) | -6.91%
19 | CC(Cc1cccc(C(F)(F)F)c1)N1CCN(CCO)CC1 (stereo not shown) | 0.273%
20 | CCN(CC)CCNC1C2CC3CC(C2)CC1C3 (stereo not shown) | -3.6%
21 | COC(=O)c1ccc2c(c1)CN(c1ccc(F)cc1)C2 | -10.7%
22 | CCc1ccc(C2=NN(CCC(=O)NCCN3CCN(Cc4ccccc4)CC3)C(=O)CC2)cc1 | -2.72%

Row | Compound | % Inhibition @ 10 uM
23 | COc1ccc(C2(C#N)CCC(OC(C)=O)CC2)cc1OC (stereo not shown) | 0.774%
24 | Cc1cc(F)c(F)cc1C(=O)N1CCCCC1 | 5%
25 | CC(=O)c1ccc(NC(=O)c2ccccc2F)cc1 | -2.03%
26 | CCOC(=O)/C(O)=C1\C=NC2C=CC=CC12 (stereo not shown) | -2.15%
27 | COc1ccc(-c2cn3nc(N4CCCC(C(=O)N5CCOCC5)C4)sc3n2)cc1 (stereo not shown) | -1.41%
28 | O=C1CC(c2cccc(O)c2)C2=C(CC(c3ccc(F)cc3)CC2=O)N1 (stereo not shown) | 1.97%
29 | Cc1ccccc1S(=O)Cc1ccc(C(=O)NCCCN2CCCCC2)o1 (stereo not shown) | -2.15%
30 | CC(C)CC(NC(=O)OCc1ccccc1)C(=O)NC1(C#N)CCN(C)CC1 (stereo not shown) | 4.63%
31 | Cc1cccc(NC2=NC(=O)/C(=C/c3cccn3C)S2)c1 | 4.1%
32 | O=C(CN(c1cccc(Cl)c1)S(=O)(=O)c1ccccc1)Nc1ccc2c(c1)OCO2 | -3.09%
33 | O=C(O)C1CCCN(S(=O)(=O)c2cccc(C(F)(F)F)c2)C1 (stereo not shown) | -4.91%
34 | Cc1ccc(C(=O)N2CCN(C)CC2)cc1Cl | -14.4%
35 | COc1ccccc1-c1noc(CCC(=O)NC2CCCCC2)n1 | -0.666%
36 | CCCCCCNC(=O)CCc1c(C)nc2c3c(C)cc(C)nc3nn2c1C | 5.65%
37 | O=c1c2c3c(sc2nc2n1CCCC2)CCCC3 | 7.78%
38 | CO/C(O)=C1\C(C)=NC2=C(C(=O)CC(c3ccccc3Cl)C2)C1c1coc2ccc(C)cc2c1=O (stereo not shown) | 5.44%
39 | CC(C)NC(C)C(O)c1ccc2c(c1)CCCC2 (stereo not shown) | -3.57% and -1.85%
40 | COc1ccc2occ(C(=O)c3ccc(/N=C(\C)N(C)C)cc3)c2c1 | 3.65%
41 | O=C(Cc1ccc(Cl)cc1)NCc1ccco1 | -2.91%
42 | CC1CCCC(NC(=O)c2cc(-c3ccncc3)nc3ccccc23)C1C (stereo not shown) | 1.16%
43 | COc1cccc(N(CC(=O)NCc2ccc(C)cc2)S(=O)(=O)c2ccc(C)cc2)c1 | -8.43%
44 | CCO/C(O)=C1/C(C)=Nc2nc3ccccc3n2C1c1ccccc1F (stereo not shown) | -1.52%

Row | Compound | % Inhibition @ 10 uM
45 | CN(C)/C=N/c1c(C(=O)c2ccccc2)sc2nccc(N(C)C)c12 | -5.98%
46 | Cc1oc(-c2cccs2)nc1Cn1c(=O)cc(-c2ccccc2)c2c(C)nn(C)c21 | 4.13%
47 | Clc1ccc(-c2noc3ncnc(N4CCC(N5CCCCC5)CC4)c23)cc1 | 2.54%
48 | COc1ccccc1C(=O)Nc1sc2c(c1C(N)=O)CCCC2 | 3.82%
49 | COc1ccc(CCNC(=O)c2ccc(CS(=O)(=O)c3ccc(Cl)cc3)o2)cc1OC | -2.72%
50 | COc1ccc(N2CCN(Cc3ccc([N+](=O)[O-])s3)CC2)cc1 | -2.56%
51 | O=C(O)c1ccccc1C(=O)N1CCN(c2ccccc2Cl)CC1 | 0.528%
52 | O=[N+]([O-])c1ccc(CN2CCC3(C=Cc4ccccc43)CC2)cc1 | 3.35%
53 | O=C(Nc1ccc(F)cc1F)c1ccco1 | -3.27%
54 | COCCNC(=O)c1ccc2nc(N3CCC(C)CC3)sc2c1 | -0.637%
55 | CN(C)CCNc1nc2c(c(=O)n(C)c(=O)n2C)n1Cc1ccccc1Cl | -2.13%
56 | CCOc1cc(/C=C2/C(=N)N3C=CSC3=NC2=O)cc(Cl)c1OCc1ccc2c(c1)OCO2 | 2.04%
57 | Nc1nc(-c2ccccc2)cn1N | -4.27%
58 | CCc1ccc(CNC(=O)C2c3ccccc3C(=O)N(C)C2c2c[nH]c3ccccc23)cc1 (stereo not shown) | 1.76%
59 | COc1cc(C2C(C#N)=C(N)OC(C)=C2C(C)=O)c([N+](=O)[O-])cc1OC (stereo not shown) | -2.62%
60 | COc1ccc(C2=C(C)C(NCCc3ccc(Cl)cc3)=NS2(=O)=O)cc1 | -6.58%
61 | O=C(Nc1nccs1)c1cc2ccccc2oc1=O | 5.94%
62 | Cc1ccc(CCNC(=O)c2cc(-c3ccncc3)nc3ccccc23)cc1 | -3.58%
63 | CCOC(=O)C1=C(O)/C(=C\c2cc(C)n(-c3ccccc3C(F)(F)F)c2C)N=C1C | 52.7%
64 | N=C1/C(=C\c2ccc(SCc3ccccc3)o2)C(=O)N=C2SC(c3cccnc3)=NN12 | -3.45%
